Some of the results follow. Single values are uncertain, as repeats are few or missing.
test system: Candida albicans DPL-15; test: growth (OD600) after compound treatment (apparently relative to screen median) (relative growth (fraction; screen median 1.02)); DPL-15 is a caspofungin-resistant clinical isolate; higher = more fungal growth (less antifungal activity); conditions: 25 µM; RPMI 1640; 48 h; 30 °C

Row | Compound | growth
1 | COc1ccc([C@@]23Oc4cc(OC)cc(OC)c4[C@]2(O)c2nc(-c4ccc(C)cc4)[nH]c(=O)c2[C@H]3c2ccccc2)cc1 | 1.05
2 | COC(=O)C/C=C/[C@@H](C)[C@H](NC(=O)[C@H](CC(C)C)NC(=O)OC(C)(C)C)c1ccccc1 | 1.04
3 | CCO[C@H]1CCN(C(=O)c2c(O)cc(O)cc2Nc2cc(C)nn2C)C1 | 0.974
4 | COc1ccc([C@]23Oc4cc(OC)cc(OC)c4[C@](O)(C2O)[C@H](c2c(F)c(F)c(F)c(F)c2F)[C@H]3c2ccccc2)cc1 (stereo partly specified) | 0.856
5 | COc1cc(CC=C(C)C)c2c(=O)c3cccc(C)c3oc2c1O | 1.04
6 | C[C@@H]1CC[C@H]2C(=O)N(Cc3cccc([N+](=O)[O-])c3)C[C@H](O)CN2[C@H]1c1ccc(Br)cc1 | 0.864
7 | COc1ccc(N2C(=O)C3=C(C(C(C)C)=NCCN3C)C2c2cccc(C(F)(F)F)c2)cc1 (stereo unspecified) | 1.07
8 | CCNC(=O)[C@H]1[C@H](C(=O)NCC)[C@@H](c2cc(OC)c(OC)c(OC)c2)[C@@H]1c1cc(OC)c(OC)c(OC)c1 | 1.05
9 | CC(C)C1=NCC(C)(C)NC2=C1C(c1cccc(C(F)(F)F)c1)NC2=O (stereo unspecified) | 0.929
10 | Nc1c(-c2ccc(Cl)cc2)cnc2c(-c3ccccn3)cnn12 | 0.943
11 | CC(C)=CCc1cc(OCC(=O)NCC(=O)NCc2ccc(O)cc2O)cc2oc3cccc(O)c3c(=O)c12 | 1.14
12 | C=CCN1C(=O)C2=C(C(C(C)C)=NCCN2)C1c1ccc2c(c1)OCO2 (stereo unspecified) | 1.15
13 | COc1ccc(N2C(=O)C3=C(C(C(C)C)=NCCN3)C2c2ccc3c(c2)OCO3)cc1 (stereo unspecified) | 1.11
14 | CCOC(=O)Cn1nnc(-c2ccc(COC(=O)CCCC[C@@H]3SC[C@@H]4NC(=O)N[C@@H]43)cc2)n1 | 1.17
15 | C=CCC1=C([O-])[C@]2(CC=C)CC(=C)C[C@](C(=O)C(C)C)(C1=O)C2=O | 1.16
16 | O=C1OCCC=C1C(O)CCc1ccccc1 (stereo unspecified) | 1.11
17 | CC(=O)OC[C@H]1O[C@H](C#CC2CCCC2)C=C[C@H]1OC(C)=O | 0.998
18 | CC(=O)OC[C@H]1O[C@H](n2cc(-c3ccc(C(C)(C)C)cc3)nn2)C=C[C@@H]1OC(C)=O | 0.959
19 | C=CCN1C(=O)c2[nH]nc(C)c2C1c1ccccc1 (stereo unspecified) | 0.932
20 | O=S(=O)(c1ccc(F)cc1)N1CCCc2nc(-c3ccccc3)ccc21 | 0.907
21 | CO[C@@H]1[C@H](O)CC[C@]2(O)CN(CCCOC(C)C)[C@@H](CC=C(C)C)[C@](C)(O)[C@@H]12 | 1.1
22 | COc1cc(OC)c2c(=O)c(O)c(-c3ccc(N(C)C)cc3)n(C)c2c1 | 0.675
23 | COc1ccc(C2=C(c3ccccc3)c3c(nc(-c4csc(C)n4)[nH]c3=O)C2=O)cc1 | 1.51
24 | CC1=CC2=CC(=O)C=C(C)[C@]2(O)[C@@H]2C=C(C)C(=O)[C@@H]2C1 | 1.29
25 | CN1CCN=C(c2ccccc2)C2=C1C(=O)N(Cc1ccccc1)C2c1cccc(C(F)(F)F)c1 (stereo unspecified) | 0.975
26 | c1ccc([C@H]2c3cc4c(cc3O[C@H]3Oc5ccccc5[C@H]32)OCO4)cc1 | 1.05

Row | Compound | growth
27 | CC(C)C1=NCCN(C)C2=C1C(c1ccccc1)N(Cc1ccccc1)C2=O (stereo unspecified) | 0.972
28 | CC1=C[C@@H](C)O[C@@]2(C1)C(=O)Nc1cccc(Br)c12 | 0.899
29 | COc1ccc(N2C(=O)C(O)=C(C(=O)CC(C)C)C2c2ccc(F)cc2)cc1 (stereo unspecified) | 1.13
30 | COc1ccc(N2C(=O)C3=C(C(CC(C)C)=NCCN3C)C2c2ccccc2)cc1 (stereo unspecified) | 1.05
31 | COCCN1C(NCc2cccc(C(F)(F)F)c2)=NC(c2ccccc2)C(C(=O)OC)=C1C (stereo unspecified) | 1.18
32 | COC(=O)[C@]1([C@@H]2CCC(=O)O2)CC(=O)c2c(O)cc(C)c(-c3c(C)cc(O)c4c3O[C@@](C(=O)OC)([C@@H]3CCC(=O)O3)CC4=O)c2O1 | 1.35
33 | COc1ccc(CO/N=C2/CCCC/C=C/CCNC(=O)c3c(O)cc(O)cc3C2)cc1 | 1.09
34 | OC[C@H]1[C@@H](Cc2ccc3c(c2)OCO3)CO[C@@H]1c1ccc2c(c1)OCO2 | 0.982
35 | COc1ccc([C@@]23Oc4cc(OC)cc(OC)c4[C@]2(O)[C@H](O)[C@H](C(=O)c2cc4ccccc4n2C)[C@H]3c2ccccc2)cc1 | 1.14
36 | c1ccc2c(c1)C[C@H]1[C@@H](c3ccc4c(c3)OCO4)c3cc4c(cc3O[C@@H]21)OCO4 | 1.09
37 | CC(=O)OC[C@H]1O[C@H](C#CC2=CCCCC2)C=C[C@@H]1OC(C)=O | 0.852
38 | CC1=C[C@@H](COc2ccccc2)O[C@@]2(C1)C(=O)N(C)c1ccccc12 | 0.939
39 | COC(=O)[C@]12C[C@H](C)[C@@H]3[C@@H](C)[C@H](c4ccccc4[C@H]31)N2C(=O)C(F)(F)F | 1.03
40 | Cn1cc(Nc2cc(O)cc(O)c2C(=O)N2CCC(F)(F)C2)cn1 | 1.1
41 | C#CCCCCCNC(=O)CC1(CNC(=O)c2cccc(/C=N/NS(=O)(=O)c3ccc(C)cc3)c2)CCCCC1 | 1.05
42 | CC(=O)C1=C2C=CCCN2C(=O)NC1c1ccc(Cl)c(F)c1 (stereo unspecified) | 1.03
43 | CC(=O)C1=C2C=CCCN2C(=O)N(C)C1c1ccccc1 (stereo unspecified) | 1.02
44 | COC(=O)[C@@H]1[C@H](C(=O)OC)[C@@H](c2cc(OC)c(OC)c(OC)c2)[C@H]1c1cc(OC)c(OC)c(OC)c1 | 1.14
45 | CS(=O)(=O)Oc1c(C[C@@]23CCCCC2=Nc2cc(Cl)cc(Cl)c23)occc1=O | 1.09
46 | OCCC[C@@]12C(I)=C3CCCC[C@H]3[C@@H]1CCc1cc3c(cc12)OCO3 | 1.01
47 | COc1ccc(C(=O)C(CC=C(C)C)C(=O)c2c(OC)cc(OC)c(Br)c2O)c(OC)c1 (stereo unspecified) | 1.08
48 | COc1cc([C@H]2[C@H](C(=O)NCc3ccccc3)[C@@H](C(=O)NCc3ccccc3)[C@@H]2c2ccc(O)c(OC)c2)ccc1O | 0.959
49 | CC(C)n1cc(Nc2cc(O)cc(O)c2C(=O)N2CC3CC3C2)cn1 (stereo unspecified) | 1.27
50 | O=Cc1ccccc1OCc1ccccc1Br | 0.929
51 | COC(=O)C1=C(C(=O)OC)[C@@H]2N(Cc3ccccc3)c3ccccc3[C@@]23C[C@@H](C(=O)OC)N(S(=O)(=O)c2c(C)noc2C)C3=N1 | 0.955
52 | C/C=C/[C@@H]1CC(=O)c2c(O)c(C)c(O)c(C)c2[C@]12C(=O)C=C(C)OC2=O | 0.934

Row | Compound | growth
53 | CC(C)(C)OC(=O)NCCCC#CCO | 1.28
54 | CC(C)c1nn(-c2ccccc2)c2c1C(c1cccc(C(F)(F)F)c1)NC2=O (stereo unspecified) | 0.937
55 | CC(C)c1c2c(nn1Cc1ccccc1)C(=O)NC2c1ccc2c(c1)OCO2 (stereo unspecified) | 1.1
56 | CCO[C@@H]1CCN(C(=O)c2c(O)cc(O)cc2Nc2cn(C)nc2C)C1 | 1.11
57 | C=CCOC(=O)N[C@H](c1ccccc1)[C@H](C)/C=C/CC(=O)O | 1.06
58 | COC(=O)c1c(C(=O)OC)c2c3ccccc3cc(C3CC3)n2c1C(=O)OC | 0.926
59 | C=C(C)CC1C(=O)CCC1=O | 1.16
60 | COC(=O)C1=C(C)N(Cc2ccccc2)C(NCCc2ccc(Br)cc2)=N[C@H]1c1cccc(C(F)(F)F)c1 | active: 0.0554
61 | Cc1ccc(S(=O)(=O)N2CCC3(CC2)CNC(=O)c2cccc(c2)-c2cc(n[nH]2)CC(C)(C)CNC(=O)C3)cc1 | 0.974
62 | CC[C@@H](O)COc1cc2c(cc1C1(c3cc4c(cc3OC[C@H](O)CC)OCO4)C(=O)Nc3cc(F)ccc31)OCO2 | 1.08
63 | CCCCCOS(=O)(=O)NC(C)(C)c1ccccn1 | 1.1
64 | CC(=O)C1=C2C=CCCN2C(=O)NC1c1ccccc1 (stereo unspecified) | 1.01
65 | COC(=O)c1[nH]c2ccc(OC)cc2c1[C@]12CCN(C(=O)c3ccc(C(F)(F)F)cc3)[C@H]1Nc1ccccc12 | 1.02
66 | CC(=O)C1=C(C)N(CC#C[Si](C)(C)C)C(=O)NC1c1ccccc1 (stereo unspecified) | 1.17
67 | CO[C@@H]1[C@H](O)CC[C@]2(O)CN(Cc3ccco3)[C@@H](CC=C(C)C)[C@](C)(O)[C@@H]12 | 1
68 | COc1cc(OC)c2oc(/C=C(\O)CC(C)=O)cc2c1C(=O)O | 1.03
69 | O=C(NCc1ccco1)N1CCc2nc(-c3ccccc3)c(-c3ccccc3)cc2C1 | 1.02
70 | CC1=NCCNC2=C1C(c1ccc(F)cc1)N(Cc1ccccc1)C2=O (stereo unspecified) | 0.913
71 | CC(C)CC1=NCCNC2=C1C(c1cccc(C(F)(F)F)c1)N(Cc1ccccc1)C2=O (stereo unspecified) | 1.12
72 | CO[C@@H]1[C@H](O)CC[C@]2(O)CN3[C@H](Cc4ccccc4)C(=O)O[C@H](CC=C(C)C)[C@]3(C)[C@@H]12 | 0.986
73 | C=CC12C=C(C)C3c4c(cc(O[Si](C(C)C)(C(C)C)C(C)C)cc4N1C(=O)OC2)C(O[Si](C)(C)C(C)(C)C)[C@@H]3C (stereo partly specified) | 0.989
74 | COC(=O)c1cc2c(c3c4ccccc4n(S(=O)(=O)c4cccc(C)c4)c13)C(=O)N(Cc1cccc(F)c1)C2 | 0.938
75 | CC1=NCCNC2=C1C(c1ccc3c(c1)OCO3)NC2=O (stereo unspecified) | 1.09
76 | Cc1ccc(C2NC(=O)c3nn(Cc4ccccc4)c(CC(C)C)c32)cc1 (stereo unspecified) | 0.937
